Experimental data published in article PMC9911399, “Two distinct binding modes provide the RNA-binding protein RbFox with extraordinary sequence specificity”.
Where a chain is given by its changes, count along the chain named. Some of the results follow.

T1: RBFOX1 RRM RbFoxmut (Fox-RRM*) (Homo sapiens, UniProt Q9NWB1 109-208, R118D;E147R;N151S;E152T)
T1 sequence: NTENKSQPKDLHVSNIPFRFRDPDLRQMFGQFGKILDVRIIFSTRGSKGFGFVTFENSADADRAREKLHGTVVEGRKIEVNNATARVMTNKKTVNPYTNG

B1: ACGUCUA (DNA:RNA)
RNA: GGGAGACCGGAAUUCAGAUUGUCCACGUCUAUUAAAUCCCGUCGUAGCCACCA
DNA 1: CAATCTGAATTCCGGTCTCCC
DNA 2: TGGTGGCTACGACGGGATT
B2: AUGAGCU (DNA:RNA)
RNA: B1 RNA with C26U, U28A, C29G, U30C, A31U
DNA 1: CAATCTGAATTCCGGTCTCCC
DNA 2: TGGTGGCTACGACGGGATT
B3: CCUGUCU (DNA:RNA)
RNA: B1 RNA with A25C, G27U, U28G, C29U, U30C, A31U
DNA 1: CAATCTGAATTCCGGTCTCCC
DNA 2: TGGTGGCTACGACGGGATT
B4: GUUUCUU (DNA:RNA)
RNA: B1 RNA with A25G, C26U, G27U, A31U
DNA 1: CAATCTGAATTCCGGTCTCCC
DNA 2: TGGTGGCTACGACGGGATT
B5: UUUCGAA (DNA:RNA)
RNA: B1 RNA with A25U, C26U, G27U, U28C, C29G, U30A
DNA 1: CAATCTGAATTCCGGTCTCCC
DNA 2: TGGTGGCTACGACGGGATT
B6: UGCCAAC (DNA:RNA)
RNA: GGGAGACCGGAAUUCAGAUUGUCCUGCCAACUUAAAUCCCGUCGUAGCCACCA
DNA 1: CAATCTGAATTCCGGTCTCCC
DNA 2: TGGTGGCTACGACGGGATT
B7: AUUUCCC (DNA:RNA)
RNA: B1 RNA with C26U, G27U, U30C, A31C
DNA 1: CAATCTGAATTCCGGTCTCCC
DNA 2: TGGTGGCTACGACGGGATT
B8: CCGCACA (DNA:RNA)
RNA: B1 RNA with A25C, U28C, C29A, U30C
DNA 1: CAATCTGAATTCCGGTCTCCC
DNA 2: TGGTGGCTACGACGGGATT
B9: CUACCAA (DNA:RNA)
RNA: B1 RNA with A25C, C26U, G27A, U28C, U30A
DNA 1: CAATCTGAATTCCGGTCTCCC
DNA 2: TGGTGGCTACGACGGGATT
B10: UACGUUC (DNA:RNA)
RNA: B6 RNA with G26A, C28G, A29U, A30U
DNA 1: CAATCTGAATTCCGGTCTCCC
DNA 2: TGGTGGCTACGACGGGATT
B11: CCGCUCC (DNA:RNA)
RNA: B1 RNA with A25C, U28C, C29U, U30C, A31C
DNA 1: CAATCTGAATTCCGGTCTCCC
DNA 2: TGGTGGCTACGACGGGATT
B12: GCCAGUC (DNA:RNA)
RNA: B1 RNA with A25G, G27C, U28A, C29G, A31C
DNA 1: CAATCTGAATTCCGGTCTCCC
DNA 2: TGGTGGCTACGACGGGATT
B13: CCUAUCG (DNA:RNA)
RNA: B1 RNA with A25C, G27U, U28A, C29U, U30C, A31G
DNA 1: CAATCTGAATTCCGGTCTCCC
DNA 2: TGGTGGCTACGACGGGATT
B14: ACGCGUA (DNA:RNA)
RNA: B1 RNA with U28C, C29G
DNA 1: CAATCTGAATTCCGGTCTCCC
DNA 2: TGGTGGCTACGACGGGATT
B15: CAGCGAG (DNA:RNA)
RNA: B6 RNA with U25C, G26A, C27G, A29G, C31G
DNA 1: CAATCTGAATTCCGGTCTCCC
DNA 2: TGGTGGCTACGACGGGATT
B16: AUUGCUG (DNA:RNA)
RNA: B1 RNA with C26U, G27U, U28G, A31G
DNA 1: CAATCTGAATTCCGGTCTCCC
DNA 2: TGGTGGCTACGACGGGATT
B17: GCUCAUC (DNA:RNA)
RNA: B6 RNA with U25G, G26C, C27U, A30U
DNA 1: CAATCTGAATTCCGGTCTCCC
DNA 2: TGGTGGCTACGACGGGATT
B18: CUUGAGG (DNA:RNA)
RNA: B6 RNA with U25C, G26U, C27U, C28G, A30G, C31G
DNA 1: CAATCTGAATTCCGGTCTCCC
DNA 2: TGGTGGCTACGACGGGATT
B19: CCCGACA (DNA:RNA)
RNA: B1 RNA with A25C, G27C, U28G, C29A, U30C
DNA 1: CAATCTGAATTCCGGTCTCCC
DNA 2: TGGTGGCTACGACGGGATT
B20: UAUGGAU (DNA:RNA)
RNA: B6 RNA with G26A, C27U, C28G, A29G, C31U
DNA 1: CAATCTGAATTCCGGTCTCCC
DNA 2: TGGTGGCTACGACGGGATT

target: T1, RBFOX1 RRM RbFoxmut (Fox-RRM*); experiment: EMSA; HiTS-Eq, 1 nM pool, 10 min; buffer printed only for the single-RNA assays: 10 mM Tris pH 7.5, 150 mM NaCl, 3.4 mM EDTA, 0.001% NP-40, 30 C; settings: tags: His6 N-terminal (pET28a); label: 5' 32P
Summary of the method: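 These values rest on relative association constants, computed from read-count changes of each RNA species versus the control reaction and normalised to the cognate motif. Reads came from free RNA recovered by 8% native PAGE after purified RbFox RRM (wild type or mutant) at increasing concentrations was equilibrated for 10 min in 50 µL with 1 nM of a 5′-radiolabelled pool with 7 randomized nucleotides and DNA-annealed flanks.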

Question: With B1 as the binder, how does the binding signal read?
Answer: Its binding signal is 0.0958 KA relative to UGCAUGU.

Question: B2 was tested. Which binding signal did it give?
Answer: The binding signal was 0.123 KA relative to UGCAUGU.

Question: For B3, which binding signal is on record?
Answer: Its binding signal is 0.104 KA relative to UGCAUGU.

Question: How did the binding signal turn out when B4 was run?
Answer: Its binding signal is 0.115 KA relative to UGCAUGU.

Question: How did the binding signal turn out when B5 was run?
Answer: The binding signal was 0.0789 KA relative to UGCAUGU.

Question: Which binding signal does the source give for B6 here?
Answer: The binding signal was 0.0569 KA relative to UGCAUGU.

Question: B7 was tested. Which binding signal did it give?
Answer: Its binding signal is 0.0481 KA relative to UGCAUGU.

Question: Which binding signal does the source give for B8 here?
Answer: Its binding signal is 0.0974 KA relative to UGCAUGU.

Question: B9 was tested. Which binding signal did it give?
Answer: The binding signal was 0.0752 KA relative to UGCAUGU.

Question: With B10 as the binder, how does the binding signal read?
Answer: The binding signal was 0.087 KA relative to UGCAUGU.

Question: Which binding signal does the source give for B11 here?
Answer: Its binding signal is 0.0543 KA relative to UGCAUGU.

Question: How did the binding signal turn out when B12 was run?
Answer: Its binding signal is 0.063 KA relative to UGCAUGU.

Question: For B13, which binding signal is on record?
Answer: The binding signal was 0.109 KA relative to UGCAUGU.

Question: For B14, which binding signal is on record?
Answer: The binding signal was 0.183 KA relative to UGCAUGU.

Question: For B15, which binding signal is on record?
Answer: Its binding signal is 0.135 KA relative to UGCAUGU.

Question: B16 was tested. Which binding signal did it give?
Answer: Its binding signal is 0.117 KA relative to UGCAUGU.

Question: With B17 as the binder, how does the binding signal read?
Answer: Its binding signal is 0.06 KA relative to UGCAUGU.

Question: How did the binding signal turn out when B18 was run?
Answer: The binding signal was 0.0818 KA relative to UGCAUGU.

Question: Which binding signal does the source give for B19 here?
Answer: Its binding signal is 0.0737 KA relative to UGCAUGU.

Question: How did the binding signal turn out when B20 was run?
Answer: Its binding signal is 0.0769 KA relative to UGCAUGU.
